Here are results for 31 molecules from paper PMC9911399, “Two distinct binding modes provide the RNA-binding protein RbFox with extraordinary sequence specificity”.

Where a chain is given by its changes, count along the chain named. Some of the results follow.

To fix the notation:
T1: RBFOX1 RRM RbFoxmut (Fox-RRM*) (Homo sapiens, UniProt Q9NWB1 109-208, R118D;E147R;N151S;E152T)
T1 sequence: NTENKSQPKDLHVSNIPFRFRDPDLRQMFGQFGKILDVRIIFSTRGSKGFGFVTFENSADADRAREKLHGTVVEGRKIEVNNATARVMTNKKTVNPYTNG

B1: AGAACUG (DNA:RNA)
RNA: GGGAGACCGGAAUUCAGAUUGUCCAGAACUGUUAAAUCCCGUCGUAGCCACCA
DNA 1: CAATCTGAATTCCGGTCTCCC
DNA 2: TGGTGGCTACGACGGGATT
B2: GAGAACC (DNA:RNA)
RNA: B1 RNA with A25G, G26A, A27G, C29A, U30C, G31C
DNA 1: CAATCTGAATTCCGGTCTCCC
DNA 2: TGGTGGCTACGACGGGATT
B3: GCUGGAA (DNA:RNA)
RNA: GGGAGACCGGAAUUCAGAUUGUCCGCUGGAAUUAAAUCCCGUCGUAGCCACCA
DNA 1: CAATCTGAATTCCGGTCTCCC
DNA 2: TGGTGGCTACGACGGGATT
B4: AGAAAUU (DNA:RNA)
RNA: B1 RNA with C29A, G31U
DNA 1: CAATCTGAATTCCGGTCTCCC
DNA 2: TGGTGGCTACGACGGGATT
B5: AAACUCG (DNA:RNA)
RNA: B1 RNA with G26A, A28C, C29U, U30C
DNA 1: CAATCTGAATTCCGGTCTCCC
DNA 2: TGGTGGCTACGACGGGATT
B6: CGAGACG (DNA:RNA)
RNA: B1 RNA with A25C, A28G, C29A, U30C
DNA 1: CAATCTGAATTCCGGTCTCCC
DNA 2: TGGTGGCTACGACGGGATT
B7: GCAAGCG (DNA:RNA)
RNA: B1 RNA with A25G, G26C, C29G, U30C
DNA 1: CAATCTGAATTCCGGTCTCCC
DNA 2: TGGTGGCTACGACGGGATT
B8: AAUAGGG (DNA:RNA)
RNA: B1 RNA with G26A, A27U, C29G, U30G
DNA 1: CAATCTGAATTCCGGTCTCCC
DNA 2: TGGTGGCTACGACGGGATT
B9: UACCCUG (DNA:RNA)
RNA: B1 RNA with A25U, G26A, A27C, A28C
DNA 1: CAATCTGAATTCCGGTCTCCC
DNA 2: TGGTGGCTACGACGGGATT
B10: AACGGCC (DNA:RNA)
RNA: B3 RNA with G25A, C26A, U27C, A30C, A31C
DNA 1: CAATCTGAATTCCGGTCTCCC
DNA 2: TGGTGGCTACGACGGGATT
B11: CCUAAUA (DNA:RNA)
RNA: B3 RNA with G25C, G28A, G29A, A30U
DNA 1: CAATCTGAATTCCGGTCTCCC
DNA 2: TGGTGGCTACGACGGGATT
B12: UAAUUAU (DNA:RNA)
RNA: B1 RNA with A25U, G26A, A28U, C29U, U30A, G31U
DNA 1: CAATCTGAATTCCGGTCTCCC
DNA 2: TGGTGGCTACGACGGGATT
B13: CGUAACG (DNA:RNA)
RNA: B1 RNA with A25C, A27U, C29A, U30C
DNA 1: CAATCTGAATTCCGGTCTCCC
DNA 2: TGGTGGCTACGACGGGATT
B14: UCUACCG (DNA:RNA)
RNA: B1 RNA with A25U, G26C, A27U, U30C
DNA 1: CAATCTGAATTCCGGTCTCCC
DNA 2: TGGTGGCTACGACGGGATT
B15: GAAAUGC (DNA:RNA)
RNA: B1 RNA with A25G, G26A, C29U, U30G, G31C
DNA 1: CAATCTGAATTCCGGTCTCCC
DNA 2: TGGTGGCTACGACGGGATT
B16: AAUGGCG (DNA:RNA)
RNA: B3 RNA with G25A, C26A, A30C, A31G
DNA 1: CAATCTGAATTCCGGTCTCCC
DNA 2: TGGTGGCTACGACGGGATT
B17: UCCAAUC (DNA:RNA)
RNA: B1 RNA with A25U, G26C, A27C, C29A, G31C
DNA 1: CAATCTGAATTCCGGTCTCCC
DNA 2: TGGTGGCTACGACGGGATT
B18: CGCUGGG (DNA:RNA)
RNA: B1 RNA with A25C, A27C, A28U, C29G, U30G
DNA 1: CAATCTGAATTCCGGTCTCCC
DNA 2: TGGTGGCTACGACGGGATT
B19: GUAUAUU (DNA:RNA)
RNA: B1 RNA with A25G, G26U, A28U, C29A, G31U
DNA 1: CAATCTGAATTCCGGTCTCCC
DNA 2: TGGTGGCTACGACGGGATT
B20: GGGACGC (DNA:RNA)
RNA: B1 RNA with A25G, A27G, U30G, G31C
DNA 1: CAATCTGAATTCCGGTCTCCC
DNA 2: TGGTGGCTACGACGGGATT
B21: GCGUCCU (DNA:RNA)
RNA: B3 RNA with U27G, G28U, G29C, A30C, A31U
DNA 1: CAATCTGAATTCCGGTCTCCC
DNA 2: TGGTGGCTACGACGGGATT
B22: GUCUUCU (DNA:RNA)
RNA: B3 RNA with C26U, U27C, G28U, G29U, A30C, A31U
DNA 1: CAATCTGAATTCCGGTCTCCC
DNA 2: TGGTGGCTACGACGGGATT
B23: UUCCAUC (DNA:RNA)
RNA: B1 RNA with A25U, G26U, A27C, A28C, C29A, G31C
DNA 1: CAATCTGAATTCCGGTCTCCC
DNA 2: TGGTGGCTACGACGGGATT
B24: GCUAAAA (DNA:RNA)
RNA: B3 RNA with G28A, G29A
DNA 1: CAATCTGAATTCCGGTCTCCC
DNA 2: TGGTGGCTACGACGGGATT
B25: CGUGCGU (DNA:RNA)
RNA: B1 RNA with A25C, A27U, A28G, U30G, G31U
DNA 1: CAATCTGAATTCCGGTCTCCC
DNA 2: TGGTGGCTACGACGGGATT
B26: CCUACUC (DNA:RNA)
RNA: B1 RNA with A25C, G26C, A27U, G31C
DNA 1: CAATCTGAATTCCGGTCTCCC
DNA 2: TGGTGGCTACGACGGGATT
B27: UACGAGA (DNA:RNA)
RNA: B3 RNA with G25U, C26A, U27C, G29A, A30G
DNA 1: CAATCTGAATTCCGGTCTCCC
DNA 2: TGGTGGCTACGACGGGATT
B28: GGAUUGU (DNA:RNA)
RNA: B1 RNA with A25G, A28U, C29U, U30G, G31U
DNA 1: CAATCTGAATTCCGGTCTCCC
DNA 2: TGGTGGCTACGACGGGATT
B29: AAGUGUG (DNA:RNA)
RNA: B1 RNA with G26A, A27G, A28U, C29G
DNA 1: CAATCTGAATTCCGGTCTCCC
DNA 2: TGGTGGCTACGACGGGATT
B30: GGUAUCC (DNA:RNA)
RNA: B1 RNA with A25G, A27U, C29U, U30C, G31C
DNA 1: CAATCTGAATTCCGGTCTCCC
DNA 2: TGGTGGCTACGACGGGATT
B31: CUCACCU (DNA:RNA)
RNA: B1 RNA with A25C, G26U, A27C, U30C, G31U
DNA 1: CAATCTGAATTCCGGTCTCCC
DNA 2: TGGTGGCTACGACGGGATT

The target in this experiment is T1, RBFOX1 RRM RbFoxmut (Fox-RRM*). Nature of the experiment: EMSA; HiTS-Eq, 1 nM pool, 10 min; buffer printed only for the single-RNA assays: 10 mM Tris pH 7.5, 150 mM NaCl, 3.4 mM EDTA, 0.001% NP-40, 30 C. The settings on record: tags: His6 N-terminal (pET28a); label: 5' 32P. The gist of the method:
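Purified wild-type or mutant RbFox RRM at increasing concentrations was equilibrated with 1 nM of 5′-radiolabelled RNA carrying 7 randomized nucleotides for 10 min in 50 µL. Unbound RNA was separated by 8% native PAGE and sequenced. Relative association constants came from read-count changes of each RNA species compared with the control reaction, normalised to the cognate motif.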
Background: In EMSA bound probe runs differently from free probe, usually more slowly.
With B1, the binding signal was 0.0709 KA relative to UGCAUGU.

Regarding B2, the binding signal is 0.0646 KA relative to UGCAUGU.

Turning to B3, the binding signal was 0.104 KA relative to UGCAUGU.

Take B4: the binding signal is 0.0606 KA relative to UGCAUGU.

Consider B5, for which the binding signal is 0.0716 KA relative to UGCAUGU.

As for B6, the binding signal is 0.0958 KA relative to UGCAUGU.

Regarding B7, the binding signal is 0.0753 KA relative to UGCAUGU.

In the case of B8, the binding signal was 0.0766 KA relative to UGCAUGU.

As for B9, the binding signal was 0.0716 KA relative to UGCAUGU.

With B10, the binding signal is 0.145 KA relative to UGCAUGU.

With B11, the binding signal was 0.0998 KA relative to UGCAUGU.

As to B12, the binding signal is 0.085 KA relative to UGCAUGU.

For B13, the binding signal is 0.135 KA relative to UGCAUGU.

As to B14, the binding signal was 0.0834 KA relative to UGCAUGU.

Consider B15, for which the binding signal was 0.072 KA relative to UGCAUGU.

For B16, the binding signal was 0.134 KA relative to UGCAUGU.

Consider B17, for which the binding signal was 0.0512 KA relative to UGCAUGU.

In the case of B18, the binding signal is 0.0695 KA relative to UGCAUGU.

As for B19, the binding signal was 0.143 KA relative to UGCAUGU.

Take B20: the binding signal is 0.0977 KA relative to UGCAUGU.

With B21, the binding signal was 0.0776 KA relative to UGCAUGU.

In the case of B22, the binding signal is 0.165 KA relative to UGCAUGU.

On to B23, for which the binding signal is 0.0845 KA relative to UGCAUGU.

For B24, the binding signal was 0.0917 KA relative to UGCAUGU.

For the molecule B25, the binding signal was 0.118 KA relative to UGCAUGU.

For the molecule B26, the binding signal is 0.0423 KA relative to UGCAUGU.

Regarding B27, the binding signal was 0.0877 KA relative to UGCAUGU.

B28: the binding signal was 0.39 KA relative to UGCAUGU.

As for B29, the binding signal was 0.192 KA relative to UGCAUGU.

For B30, the binding signal is 0.116 KA relative to UGCAUGU.

As for B31, the binding signal was 0.0924 KA relative to UGCAUGU.
